Here are results for one molecule from the supplement of paper PMC8728848.

What all share (experiment): glycan array binding signal (z-score within array); higher = stronger binding
Holding throughout (conditions): glycan notation: IUPAC condensed, linker removed; mutation: N288D, K313I

In assay [1] the target is Gal(b1-4)GlcNAc(b1-3)Gal(b1-4)GlcNAc(b1-3)Gal(b1-4)GlcNAc(b1-3)Gal(b1-4)GlcNAc(b1-2)Man(a1-3)[Gal(b1-4)GlcNAc(b1-3)Gal(b1-4)GlcNAc(b1-3)Gal(b1-4)GlcNAc(b1-3)Gal(b1-4)GlcNAc(b1-2)Man(a1-6)]Man(b1-4)GlcNAc(b1-4)GlcNAc. Put shortly: (§1)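 From the Consortium for Functional Glycomics database, 3228 arrays were curated, keeping only those whose protein sequence was available. Binding is given as a within-array Z-score averaged across arrays sharing a protein sequence and across linkers. Negative Z-scores can be read as non-binding.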

The target of assay [2] is Gal(b1-4)GlcNAc(b1-3)Gal(b1-4)GlcNAc(b1-3)Gal(b1-4)GlcNAc(b1-3)Gal(b1-4)GlcNAc(b1-2)Man(a1-3)[Gal(b1-4)GlcNAc(b1-3)Gal(b1-4)GlcNAc(b1-3)Gal(b1-4)GlcNAc(b1-3)Gal(b1-4)GlcNAc(b1-2)Man(a1-6)]Man(b1-4)GlcNAc(b1-4)[Fuc(a1-6)]GlcNAc. The gist of the method: as §1
For assay [3], the target named is Gal(b1-4)GlcNAc(b1-3)Gal(b1-4)GlcNAc(b1-3)Gal(b1-4)GlcNAc(b1-3)Gal(b1-4)GlcNAc(b1-2)[Gal(b1-4)GlcNAc(b1-3)Gal(b1-4)GlcNAc(b1-3)Gal(b1-4)GlcNAc(b1-3)Gal(b1-4)GlcNAc(b1-6)]Man(a1-6)[Gal(b1-4)GlcNAc(b1-3)Gal(b1-4)GlcNAc(b1-3)Gal(b1-4)GlcNAc(b1-3)Gal(b1-4)GlcNAc(b1-2)Man(a1-3)]Man(b1-4)GlcNAc(b1-4)[Fuc(a1-6)]GlcNAc. Put shortly: as §1
For assay [4], the target named is Gal(b1-4)GlcNAc(b1-3)Gal(b1-4)GlcNAc(b1-3)Gal(b1-4)GlcNAc(b1-3)Gal(b1-4)GlcNAc(b1-3)Gal(b1-4)GlcNAc(b1-2)Man(a1-3)[Gal(b1-4)GlcNAc(b1-3)Gal(b1-4)GlcNAc(b1-3)Gal(b1-4)GlcNAc(b1-3)Gal(b1-4)GlcNAc(b1-3)Gal(b1-4)GlcNAc(b1-2)Man(a1-6)]Man(b1-4)GlcNAc(b1-4)GlcNAc. The gist of the method: as §1
For assay [5], the target named is Gal(b1-4)GlcNAc(b1-3)Gal(b1-4)GlcNAc(b1-3)Gal(b1-4)GlcNAc(b1-3)Gal(b1-4)GlcNAc(b1-3)Gal(b1-4)GlcNAc(b1-2)Man(a1-3)[Gal(b1-4)GlcNAc(b1-3)Gal(b1-4)GlcNAc(b1-3)Gal(b1-4)GlcNAc(b1-3)Gal(b1-4)GlcNAc(b1-3)Gal(b1-4)GlcNAc(b1-2)Man(a1-6)]Man(b1-4)GlcNAc(b1-4)[Fuc(a1-6)]GlcNAc. The gist of the method:
as §1

The target of assay [6] is Gal(b1-4)GlcNAc(b1-3)Gal(b1-4)GlcNAc(b1-3)Gal(b1-4)GlcNAc(b1-3)Gal(b1-4)GlcNAc(b1-3)Gal(b1-4)GlcNAc(b1-2)[Gal(b1-4)GlcNAc(b1-3)Gal(b1-4)GlcNAc(b1-3)Gal(b1-4)GlcNAc(b1-3)Gal(b1-4)GlcNAc(b1-3)Gal(b1-4)GlcNAc(b1-6)]Man(a1-6)[Gal(b1-4)GlcNAc(b1-3)Gal(b1-4)GlcNAc(b1-3)Gal(b1-4)GlcNAc(b1-3)Gal(b1-4)GlcNAc(b1-3)Gal(b1-4)GlcNAc(b1-2)Man(a1-3)]Man(b1-4)GlcNAc(b1-4)[Fuc(a1-6)]GlcNAc. The gist of the method:
as §1

The target of assay [7] is Gal(b1-4)GlcNAc(b1-3)Gal(b1-4)GlcNAc(b1-3)Gal(b1-4)GlcNAc(b1-3)Gal(b1-4)GlcNAc(b1-3)Gal(b1-4)GlcNAc(b1-3)Gal(b1-4)GlcNAc(b1-2)Man(a1-3)[Gal(b1-4)GlcNAc(b1-3)Gal(b1-4)GlcNAc(b1-3)Gal(b1-4)GlcNAc(b1-3)Gal(b1-4)GlcNAc(b1-3)Gal(b1-4)GlcNAc(b1-3)Gal(b1-4)GlcNAc(b1-2)Man(a1-6)]Man(b1-4)GlcNAc(b1-4)GlcNAc. The gist of the method:
as §1

Assay [8] addresses Gal(b1-4)GlcNAc(b1-3)Gal(b1-4)GlcNAc(b1-3)GalNAc. The gist of the method:
as §1

Assay [9] concerns the target Gal(b1-4)GlcNAc(b1-3)Gal(b1-4)GlcNAc(b1-3)[Gal(b1-4)GlcNAc(b1-3)Gal(b1-4)GlcNAc(b1-6)]GalNAc. The gist of the method:
as §1

Assay [10] has as its target Gal(b1-4)GlcNAc(b1-3)Gal(b1-4)GlcNAc(b1-6)[Gal(b1-3)]GalNAc. The gist of the method: as §1
Assay [11] addresses Gal(b1-4)GlcNAc(b1-3)Gal(b1-4)[Fuc(a1-3)]GlcNAc(b1-3)Gal(b1-4)[Fuc(a1-3)]GlcNAc. Put shortly:
as §1

For assay [12], the target named is Gal(b1-4)GlcNAc(b1-3)GalNAc. Put shortly: as §1
The target in assay [13] is Gal(b1-4)GlcNAc(b1-3)[Fuc(a1-3)GlcNAc(b1-6)]Gal(b1-4)Glc. The gist of the method: as §1
Assay [14] has as its target Gal(b1-4)GlcNAc(b1-3)[Gal(b1-4)GlcNAc(b1-6)]Gal(b1-4)GlcNAc. Put shortly:
as §1

Assay [15] deals with Gal(b1-4)GlcNAc(b1-3)[GlcNAc(b1-6)]Gal(b1-4)GlcNAc. The gist of the method: as §1
The target in assay [16] is Gal(b1-4)GlcNAc(b1-6)Gal(b1-4)GlcNAc. Put shortly:
as §1

Assay [17] addresses Gal(b1-4)GlcNAc(b1-6)GalNAc. The gist of the method:
as §1

The target in assay [18] is Gal(b1-4)GlcNAc(b1-6)[Gal(b1-3)]GalNAc. Put shortly: as §1
The target in assay [19] is Gal(b1-4)GlcNAc(b1-6)[Gal(b1-4)GlcNAc(b1-3)]GalNAc. The gist of the method:
as §1

For assay [20], the target named is Gal(b1-4)GlcNAc6P. The gist of the method:
as §1

The target in assay [21] is Gal(b1-6)Gal. Put shortly:
as §1

For assay [22], the target named is Gal3S(b1-3)GalNAc. The gist of the method:
as §1

Assay [23] addresses Gal3S(b1-3)GlcNAc. The gist of the method:
as §1

This is one part of the list.

B1: Langerin (Homo sapiens), Q9UJ71 (protein)
chain: STLNAQIPELKSDLEKASALNTKIRALQGSLENMSKLLKRQNDILQVVSQGWKYFKGNFYYFSLIPKTWYSAEQFCVSRNSHLTSVTSESEQEFLYKTAGGLIYWIGLTKAGMEGDWSWVDDTPFNKVQSARFWIPGEPNDAGNNEHCGNIKAPSLQAWNDAPCDITFLFICKRPYVPSEP
With B1, the “glycan array binding signal (z-score)” value in [1] was -0.144; in assay [2], -0.185; in [3] it was 0.313; in [4], 0.257; in assay [5] it was -0.155; in assay [6] it was 0.74. The “glycan array binding signal (z-score)” value is 0.914 in assay [7]; -0.157 in assay [8]; -0.136 in [9]; -0.063 in assay [10]; -0.228 in assay [11]; -0.274 in assay [12]. Further, the “glycan array binding signal (z-score)” value was 1.04 in assay [13]; -0.17 in assay [14]; -0.31 in [15]; -0.271 in [16]; 0.001 in [17]; 0.04 in assay [18]. Besides, the “glycan array binding signal (z-score)” value is 0.151 in [19]; -0.382 in assay [20]; -0.126 in [21]; -0.187 in [22]; -0.136 in [23].
